Measurements reported in PubChem BioAssay AID686978 (National Center for Advancing Translational Sciences (NCATS), 2013).
Among all 420,000 compounds or so, about 64,000 (15%) were called active. Inconclusive means that the source gave no clear call. Such entries were picked first, then a sample of the others. The call rests on the fitted dose curve; in most records, active means well fitted inhibition curve with a large enough effect; inconclusive means small, poorly fitted or top-dose-only effect; inactive means flat fitted curve, though single readings scatter. No potency is given beside an inconclusive call; the fits are too rough.

Experiment: qHTS for Inhibitors of human tyrosyl-DNA phosphodiesterase 1 (TDP1): qHTS in cells in absence of CPT; further: nearly all actives have a fitted effect of over 55% in size
Settings: DT40 Tdp1-/- hTDP1 cells, no CPT, ATP luminescence, 48 h; series mostly up to 46.2 µM
Procedure, shortened: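 Stably hTDP1-transfected Tdp1-null chicken DT40 cells were treated with library compounds minus camptothecin and grown for at least 48 hr at 37 °C, after which cellular ATP was quantified by luminescence.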
Potency means the concentration at half of the fitted maximal effect; tags describe the fitted curve by direction and shape.

Row | Compound | Potency
1 | CCOc1ccc([N+](=O)[O-])cc1CNC1CCCCCCC1 | inconclusive [inhibitor, single point]
2 | CC1CCCC(NC(=O)COC(=O)c2cc(S(=O)(=O)N3CCCCC3)ccc2N2CCOCC2)C1C (stereo not drawn) | inconclusive [inhibitor, single point]
3 | COc1cccc(OCCOc2c(OC)cccc2OC)c1 | inconclusive [inhibitor, single point]
4 | CC(C)COc1ccc(C(=O)Nc2sc3c(c2C(=O)O)CC(C)(C)OC3)cc1 | inconclusive [inhibitor, single point]
5 | O=S(=O)(c1ccc(Cl)cc1)c1nc(-c2ccco2)oc1SCc1ccccc1F | active: 16.4 µM
6 | CC(=O)Nc1ccc2c(c1)C(=O)c1cccc(C(=O)O)c1-2 | inactive
7 | O=C(OCC(=O)N1CCCCCC1)c1ccc(Cl)c(S(=O)(=O)N2CCCC2)c1 | inconclusive [inhibitor, single point]
8 | NC(c1ccccc1)c1csc(Nc2ccccn2)n1 (stereo not drawn) | active: 20.6 µM
9 | CCOC(=O)c1csc(NC(=O)c2cc(OC)c(OC)c(OC)c2)n1 | inconclusive [inhibitor, single point]
10 | CCOc1ccc(OCC)c(NC(=O)c2cc3ccccn3n2)c1 | inconclusive [inhibitor, single point]
11 | CCOC(=O)N1CCN(C(=O)c2ccc3c(c2)sc2nc(-c4ccc(OC)cc4)cn23)CC1 | active: 23.1 µM
12 | CCC(=O)N1CCc2cc(S(=O)(=O)NC(Cc3ccccc3)C(=O)Nc3ccccc3C)ccc21 (stereo not drawn) | inactive
13 | COc1ccccc1CC(=O)NC1CCC(C)CC1 (stereo not drawn) | inactive
14 | CN1CC=C2C(C#N)=C(N)C(C#N)(C#N)C(c3cccc(Cl)c3Cl)C2C1 (stereo not drawn) | inconclusive [inhibitor, single point]
15 | COC(=O)c1c(NC(=O)C(C)C)sc2c1CCN(Cc1ccccc1)C2 | inconclusive [inhibitor, single point]
16 | S=c1[nH]nc(-c2ccc(Cl)cc2)n1CCCN1CCOCC1 | inactive
17 | O=C(NCC1COc2ccccc2O1)c1ccc(F)c(S(=O)(=O)N2CCOCC2)c1 (stereo not drawn) | inconclusive [inhibitor, single point]
18 | Cc1ccc(NC(=O)c2nnn(-c3cccc(C(F)(F)F)c3)c2N)cc1 | inactive
19 | C/C(=N\NC(=S)Nc1ccccc1C)C1Cc2ccccc2C(=O)O1 (stereo not drawn) | active: 6.51 µM
20 | CCOC(=O)c1c(NC(=O)CSc2nnnn2C)sc(C)c1-c1ccc(C)cc1 | active: 16.4 µM
21 | CC(=O)C1=C(c2ccccc2)NC(=S)NC1c1cc(Cl)c(OC(C)C)c(Cl)c1 (stereo not drawn) | inconclusive [inhibitor, single point]
22 | Cc1ccc2[nH]c(=S)cc(C)c2c1 | inconclusive [inhibitor, single point]
23 | CCCc1cc(=O)[nH]c(SCC(=O)N2CCC(C)CC2)n1 | inactive
24 | Cc1cccc(C)c1NC(=O)CN(C)C(=O)Cn1c(=O)cnc2ccccc21 | inactive

Row | Compound | Potency
25 | CC(Nc1nc(N2CCOCC2)nc2ccccc12)c1ccccc1 (stereo not drawn) | active: 18.4 µM
26 | Cn1c(=O)c2c(nc(NCCCO)n2Cc2cccc(Br)c2)n(C)c1=O | inconclusive [inhibitor, partial curve]
27 | Cc1cc(C)cc(SCc2noc(C(=O)NCCN(C)C)c2C(=O)NCCN(C)C)c1 | active: 14.6 µM
28 | O=C(Nc1ccc(F)cc1)c1cc(S(=O)(=O)Nc2ccc(F)cc2)cs1 | active: 29.1 µM
29 | Cc1cccc(NC(=O)C(=O)NCC(c2ccc3c(c2)OCO3)N2CCN(c3ccccc3)CC2)c1 (stereo not drawn) | inactive
30 | COc1cc2oc(=O)cc(-c3ccc(-c4ccc(OC(F)(F)F)cc4)cc3)c2c(OC)c1OC | active: 11.6 µM
31 | CC(C)COc1ccc(C(=O)OCCN2CCCCC2)cc1 | inactive
32 | O=C(NCCN1CCOCC1)c1ccc2c(c1)N(Cc1ccccc1)C(=O)CS2 | inactive
33 | CCOC(=O)c1c(C)[nH]c(C)c1C(=O)CSc1nc2ccccc2[nH]1 | inactive
34 | COc1nc2ccc(C)cc2cc1-c1noc(-c2ccccc2)n1 | inconclusive [inhibitor, single point]
35 | COc1ccc(-c2ccc(/C=C(\NC(=O)c3ccccc3)C(=O)N3CCOCC3)o2)cc1 | active: 20.6 µM
36 | Cc1cc(S(=O)(=O)NC(C)c2nnc3ccccn23)ccc1Br (stereo not drawn) | inactive
37 | COc1ccccc1-c1cnc(C(O)c2ccc(CN3CCCCC3)cc2)[nH]1 (stereo not drawn) | inactive
38 | CCCCC(=O)NNC(=O)N1c2ccccc2Sc2ccccc21 | inactive
39 | Cn1c(CN2CCN(c3ccccc3NS(C)(=O)=O)CC2)nc2ccccc21 | inconclusive [inhibitor, partial curve]
40 | [N-]=[N+]=NC[C@H](Cc1ccccc1)N1CCN(Cc2ccccc2)CCC1=O | inactive
41 | CCOC(=O)Cn1c(=O)oc2cc(S(=O)(=O)N3CCN(c4cccc(C)c4)C(C)C3)ccc21 (stereo not drawn) | inconclusive [inhibitor, single point]
42 | CC(=O)c1ccc(NC(=O)C2CCCN(S(=O)(=O)c3cccc4nonc34)C2)cc1 (stereo not drawn) | inactive
43 | C=CCN(CC=C)c1ccc(N2C(=O)C3CCCCC3C2=O)cc1[N+](=O)[O-] (stereo not drawn) | inconclusive [inhibitor, single point]
44 | O=C(CN1c2ccccc2Sc2ccccc21)N/N=C/c1ccccc1 | inconclusive [inhibitor, single point]
45 | COCc1c(C(=O)OCC(=O)N2CCCC2=O)oc2ccccc12 | inactive
46 | COc1ccccc1CNC(=O)C(C)n1c(=O)cc(-c2ccccc2)c2c(C)nn(C)c21 (stereo not drawn) | inconclusive [inhibitor, single point]
47 | CCN1C(=O)[C@H]2[C@@H](c3ccc(-c4cccc(Cl)c4)c(OC)c3)N[C@@](CC(C)C)(C(=O)OC)[C@H]2C1=O | inconclusive [inhibitor, single point]
48 | Cc1ccc2nc(SCC(=O)Nc3ccc4sc(C)nc4c3)c(C#N)cc2c1 | inconclusive [inhibitor, partial curve]
